pIC50: −log10 of the molar value. The IC50 comes from the fitted curve, where viability falls to half of the control; where the fit passes the top or lowest dose, that dose stands as a limit. AUC, from the same fit, is the share of area under the viability curve across the 256-fold dose range: 1 means no effect, lower means more sensitive. For some of these results: An inferred top dose was calculated from the reported fits.
Key:
Test in all cases: Viability of human cancer cell lines after 72 h of drug (GDSC screen)
OSI-027 = compound: COc1cccc2cc(-c3nc([C@H]4CC[C@H](C(=O)O)CC4)n4ncnc(N)c34)[nH]c12 [OSI-027]; details: top dose 20 µM
Experimental: (§1)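 Human cancer cell lines in 384-well plates, medium with 10% serum, drug for 72 h over a 256-fold dose range (nine 2-fold or five 4-fold steps up to the top dose). Adherent lines were fixed and stained with the nucleic acid dye Syto60, suspension lines read with resazurin; signal relative to control wells, capped at 0 and 100%. One two-parameter sigmoid per drug and line, fitted in a mixed model over all curves with the slope shared within a line.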

Vismodegib = compound: CS(=O)(=O)c1ccc(C(=O)Nc2ccc(Cl)c(-c3ccccn3)c2)c(Cl)c1 [Vismodegib]; details: top dose 10 µM; top dose inferred
Experimental: as §1

Doxorubicin = compound: COc1cccc2c1C(=O)c1c(O)c3c(c(O)c1C2=O)C[C@@](O)(C(=O)CO)C[C@@H]3O[C@H]1C[C@H](N)[C@H](O)[C@H](C)O1 [Doxorubicin]; details: top dose 1.024 µM
Experimental: as §1

Dimethyloxalylglycine = compound: COC(=O)CNC(=O)C(=O)OC [Dimethyloxalylglycine]; details: top dose 4000 µM; top dose inferred
Experimental: as §1

TG101348 = compound: Cc1cnc(Nc2ccc(OCCN3CCCC3)cc2)nc1Nc1cccc(S(=O)(=O)NC(C)(C)C)c1 [TG101348]; details: top dose 10.24 µM
Experimental: as §1

CCT018159 = compound: CCc1cc(-c2n[nH]c(C)c2-c2ccc3c(c2)OCCO3)c(O)cc1O [CCT018159]; details: top dose 10 µM; top dose inferred
Experimental: as §1

17-AAG = compound: C=CCNC1=C2C[C@@H](C)C[C@H](OC)[C@H](O)[C@@H](C)/C=C(\C)[C@H](OC(N)=O)[C@@H](OC)/C=C\C=C(/C)C(=O)NC(=CC1=O)C2=O [17-AAG]; details: top dose 1 µM
Experimental: as §1

VX-11e = compound: Cc1cnc(Nc2ccc(F)cc2Cl)nc1-c1c[nH]c(C(=O)N[C@H](CO)c2cccc(Cl)c2)c1 [VX-11e]; details: top dose 5.12 µM; top dose inferred
Experimental: as §1

BIX02189 = compound: CN(C)Cc1cccc(N=C(c2ccccc2)c2c(O)[nH]c3cc(C(=O)N(C)C)ccc23)c1 [BIX02189]; details: top dose 20 µM; top dose inferred
Experimental: as §1

UNC1215 = compound: O=C(c1ccc(C(=O)N2CCC(N3CCCC3)CC2)c(Nc2ccccc2)c1)N1CCC(N2CCCC2)CC1 [UNC1215]; details: top dose 1 µM; top dose inferred
Experimental: as §1

Cell Line | AUC (OSI-027) | pIC50 (OSI-027) | AUC (Vismodegib) | pIC50 (Vismodegib) | AUC (Doxorubicin) | AUC (Dimethyloxalylglycine) | pIC50 (Dimethyloxalylglycine) | AUC (TG101348) | pIC50 (TG101348) | AUC (CCT018159) | pIC50 (CCT018159) | AUC (17-AAG) | pIC50 (17-AAG) | AUC (VX-11e) | pIC50 (VX-11e) | AUC (BIX02189) | pIC50 (BIX02189) | AUC (UNC1215) | pIC50 (UNC1215) | pIC50 (Doxorubicin)
LAMA-84 (chronic myeloid leukaemia, suspension) | 0.251 | 6.62 | 0.932 | < 5.00 | 0.782 | 0.76 | 2.84 | 0.54 | 6.08 | 0.89 | < 5.00 | 0.798 | 6.32 | 0.666 | 6.03 | 0.628 | 5.55 | 0.963 | < 6.00 | –
DMS-79 (small cell lung carcinoma, suspension) | 0.849 | 4.72 | 0.984 | < 5.00 | 0.896 | 0.909 | < 2.40 | 0.941 | < 4.99 | 0.955 | < 5.00 | 0.898 | < 6.00 | 0.977 | < 5.29 | 0.959 | < 4.70 | 0.969 | < 6.00 | < 5.99
NCI-H1048 (small cell lung carcinoma, adherent) | 0.222 | 6.67 | 0.985 | < 5.00 | 0.579 | 0.76 | 2.89 | 0.856 | 5.16 | 0.869 | 5.11 | 0.748 | 6.53 | 0.957 | < 5.29 | 0.822 | 5.00 | 0.987 | < 6.00 | 6.99
U-698-M (B-cell leukaemia, suspension) | 0.805 | 5.00 | 0.952 | < 5.00 | 0.623 | 0.256 | 4.30 | 0.932 | < 4.99 | 0.838 | 5.17 | 0.93 | < 6.00 | 0.922 | < 5.29 | 0.761 | 5.15 | 0.982 | < 6.00 | –
EM-2 (chronic myeloid leukaemia, suspension) | 0.506 | 5.89 | 0.974 | < 5.00 | 0.744 | 0.478 | 3.67 | 0.682 | 5.65 | 0.877 | < 5.00 | 0.912 | < 6.00 | 0.782 | 5.61 | 0.85 | 4.74 | 0.97 | < 6.00 | 6.45
SUP-T1 (T-cell lymphoblastic leukaemia, suspension) | 0.57 | 5.72 | 0.966 | < 5.00 | 0.552 | 0.405 | 3.85 | 0.814 | 5.30 | 0.985 | < 5.00 | 0.955 | < 6.00 | 0.987 | < 5.29 | 0.854 | 4.87 | 0.98 | < 6.00 | 7.06
SUIT-2 (pancreas, adherent) | 0.402 | 6.18 | 0.982 | < 5.00 | 0.518 | 0.822 | 2.60 | 0.704 | 5.61 | 0.983 | < 5.00 | 0.926 | < 6.00 | 0.607 | 6.19 | 0.695 | 5.34 | 0.985 | < 6.00 | 7.14
KARPAS-45 (lymphoblastic leukaemia, suspension) | 0.465 | 5.99 | 0.972 | < 5.00 | 0.907 | 0.668 | 3.17 | 0.577 | 6.00 | 0.87 | 5.17 | 0.918 | < 6.00 | 0.953 | < 5.29 | 0.705 | 5.38 | 0.986 | < 6.00 | –
PSN1 (pancreas, adherent) | 0.635 | 5.56 | 0.965 | < 5.00 | 0.254 | 0.931 | < 2.40 | 0.812 | 5.35 | 0.827 | 5.31 | 0.458 | 7.31 | 0.203 | 7.29 | 0.921 | < 4.70 | 0.982 | < 6.00 | 7.84
H4 (glioma, adherent) | 0.641 | 5.51 | 0.976 | < 5.00 | 0.508 | 0.496 | 3.61 | 0.786 | 5.36 | 0.951 | < 5.00 | 0.396 | 7.49 | 0.982 | < 5.29 | 0.972 | < 4.70 | 0.985 | < 6.00 | 7.17
IPC-298 (melanoma, adherent) | 0.525 | 5.84 | 0.975 | < 5.00 | 0.659 | 0.792 | 2.75 | 0.897 | < 4.99 | 0.896 | < 5.00 | 0.553 | 7.06 | 0.673 | 6.02 | 0.922 | < 4.70 | 0.985 | < 6.00 | 6.76
ME-1 (acute myeloid leukaemia, suspension) | 0.618 | 5.57 | 0.987 | < 5.00 | 0.962 | 0.512 | 3.57 | 0.813 | 5.22 | 0.983 | < 5.00 | 0.982 | < 6.00 | 0.806 | 5.55 | 0.932 | < 4.70 | 0.986 | < 6.00 | < 5.99
NCI-H1703 (lung adenocarcinoma, adherent) | 0.426 | 6.13 | 0.973 | < 5.00 | 0.622 | 0.75 | 2.80 | 0.572 | 5.98 | 0.938 | < 5.00 | 0.361 | 7.63 | 0.979 | < 5.29 | 0.914 | < 4.70 | 0.979 | < 6.00 | 6.82
P12-ICHIKAWA (T-cell lymphoblastic leukaemia, suspension) | 0.493 | 5.92 | 0.952 | < 5.00 | 0.454 | 0.27 | 4.18 | 0.864 | 5.24 | 0.991 | < 5.00 | 0.994 | < 6.00 | 0.983 | < 5.29 | 0.926 | 4.71 | 0.994 | < 6.00 | –
LCLC-103H (large cell lung carcinoma, adherent) | 0.476 | 5.97 | 0.973 | < 5.00 | 0.317 | 0.682 | 3.12 | 0.747 | 5.52 | 0.919 | < 5.00 | 0.948 | < 6.00 | 0.984 | < 5.29 | 0.908 | < 4.70 | 0.987 | < 6.00 | 7.68
NCI-H1838 (lung adenocarcinoma, adherent) | 0.955 | < 4.70 | 0.964 | < 5.00 | 0.755 | 0.926 | < 2.40 | 0.923 | < 4.99 | 0.963 | < 5.00 | 0.852 | < 6.00 | 0.969 | < 5.29 | 0.979 | < 4.70 | 0.985 | < 6.00 | 6.38
KS-1 (glioma, adherent) | 0.304 | 6.52 | 0.979 | < 5.00 | 0.212 | 0.232 | 4.47 | 0.617 | 5.84 | 0.907 | < 5.00 | 0.319 | 7.77 | 0.908 | < 5.29 | 0.864 | < 4.70 | 0.976 | < 6.00 | 8.15
SAT (head and neck, adherent) | 0.965 | < 4.70 | 0.896 | < 5.00 | 0.874 | 0.836 | < 2.40 | 0.784 | 5.14 | 0.83 | < 5.00 | 0.59 | 6.90 | 0.898 | < 5.29 | 0.945 | < 4.70 | 0.961 | < 6.00 | < 5.99
KARPAS-299 (anaplastic large cell lymphoma, suspension) | 0.347 | 6.29 | 0.971 | < 5.00 | 0.696 | 0.354 | 3.97 | 0.868 | 5.17 | 0.916 | < 5.00 | 0.848 | 6.25 | 0.992 | < 5.29 | 0.955 | < 4.70 | 0.978 | < 6.00 | 6.69
KYM-1 (rhabdomyosarcoma, adherent) | 0.61 | 5.62 | 0.979 | < 5.00 | 0.609 | 0.691 | 3.11 | 0.89 | 5.05 | 0.929 | < 5.00 | 0.563 | 7.04 | 0.991 | < 5.29 | 0.991 | < 4.70 | 0.991 | < 6.00 | 6.92
JiyoyeP-2003 (Burkitt lymphoma, suspension) | 0.701 | 5.37 | 0.976 | < 5.00 | 0.64 | 0.53 | 3.52 | 0.909 | < 4.99 | 0.924 | < 5.00 | 0.97 | < 6.00 | 0.979 | < 5.29 | 0.958 | < 4.70 | 0.987 | < 6.00 | 6.83
MONO-MAC-6 (acute myeloid leukaemia, suspension) | 0.106 | > 7.11 | 0.954 | < 5.00 | 0.646 | 0.436 | 3.78 | 0.336 | 6.66 | 0.768 | 5.40 | 0.774 | 6.38 | 0.937 | < 5.29 | 0.749 | 5.17 | 0.969 | < 6.00 | 6.78
COLO-678 (large intestine, semi-adherent) | 0.94 | < 4.70 | 0.974 | < 5.00 | 0.774 | 0.75 | 2.78 | 0.947 | < 4.99 | 0.909 | < 5.00 | 0.597 | 6.90 | 0.969 | < 5.29 | 0.97 | < 4.70 | 0.983 | < 6.00 | 6.28
GOTO (neuroblastoma, adherent) | 0.765 | 5.08 | 0.951 | < 5.00 | 0.74 | 0.728 | 2.91 | 0.904 | < 4.99 | 0.894 | < 5.00 | 0.773 | 6.35 | 0.975 | < 5.29 | 0.93 | < 4.70 | 0.97 | < 6.00 | 6.46
SU-DHL-6 (B-cell lymphoma, suspension) | 0.062 | 7.10 | 0.97 | < 5.00 | 0.608 | 0.123 | 4.57 | 0.678 | 5.76 | 0.928 | 5.05 | 0.994 | < 6.00 | 0.976 | < 5.29 | 0.885 | 4.91 | 0.995 | < 6.00 | 6.93

From the supplement of paper PMC4967469
